Assay results from PubChem BioAssay AID1745853 (National Center for Advancing Translational Sciences (NCATS), 2022).
Where “and” joins values, the source holds several entries; their conditions need not be identical. Equal values may be shown once. Some of the results follow. Further columns of the screen follow, without active or inactive calls.

Experiments:
Test in all cases: Primary Screen for Target Class Profiling of Small Molecule Inhibitors of Methyltransferases
[1] = target: Glycine N-methyltransferase (Homo sapiens) (UniProt Q14749); details: purified enzyme, MTase-Glo SAH luminescence; measured here: GNMT inhibition; at 40 µM; stronger effect = lower value
Summary of the method: (§1)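 Each enzyme was reacted with SAM and its substrate, with compounds tested once at 40 uM; SAH formed was read by MTase-Glo luminescence.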

[2] = target: Guanidinoacetate N-methyltransferase (Homo sapiens) (UniProt Q14353); details: purified enzyme, MTase-Glo SAH luminescence; measured here: GAMT inhibition; at 40 µM; stronger effect = lower value
Summary of the method: as §1

[3] = target: Histamine N-methyltransferase (Homo sapiens) (UniProt P50135); details: purified enzyme, MTase-Glo SAH luminescence; measured here: HNMT inhibition; at 40 µM; stronger effect = lower value
Summary of the method: as §1

[4] = target: Nicotinamide N-methyltransferase (Homo sapiens) (UniProt P40261); details: purified enzyme, MTase-Glo SAH luminescence; measured here: NNMT inhibition; at 40 µM; stronger effect = lower value
Summary of the method: as §1

[5] = target: Phenylethanolamine N-methyltransferase (Homo sapiens) (UniProt P11086); details: purified enzyme, MTase-Glo SAH luminescence; measured here: PNMT inhibition; at 40 µM; stronger effect = lower value
Summary of the method: as §1
% is set by controls: 0 for no effect and ±100 for the full control effect.

SMILES	activity change, negative = inhibition [1] [%]	activity change, negative = inhibition [2] [%]	activity change, negative = inhibition [3] [%]	activity change, negative = inhibition [4]	activity change, negative = inhibition [5]
Cc1ccc(NC(=O)c2ncn3c2C(=O)N(C2CC2)C(C)(C(=O)NC2CCCC2)C3)c(Cl)c1 (stereo not drawn)	-0.344	0	8.1	-0.406%	2.71%
COc1ccc(Sc2ccc(NC(=O)c3ccccc3Cl)cc2C#N)cc1	1.5	-1.56	7.37	-12.4%	1.19%
CC(=O)N[C@@H](CS)C(=O)O	3.62	-3.8	5.5	-13.7%	-7.68%
CCCn1c(=O)c2ccc(Cl)cc2n2c(=O)n(CC(=O)Nc3ccc(CC)cc3)nc12	0.201	1.56	3.01	-2.96%	-1.77%
COc1ccc(CCNC(=O)c2cc3n(n2)CC(C)(C(=O)NC2CCCCC2)N(C)C3=O)cc1OC (stereo not drawn)	-7.25	5.07	-2.51	-0.85%	1.47%
COCCN(C)C[C@@H]1CN(C(=O)c2ccc(Cl)s2)C[C@@H]1CO	-6.8	-5.95	-10.4	-6.79%	-7.83%
Cc1ccc(C2c3cccn3-c3sc4c(c3CN2C(=O)Nc2ccc(F)cc2)CCCC4)cc1 (stereo not drawn)	-5.33	-11.1	1.3	-5.47%	-1.34%
O=C(NC[C@H]1OC[C@@H](N(Cc2cnc[nH]2)Cc2cnc[nH]2)[C@@H]1O)C1CCCC1	0.067	1	1.78	0.462%	2%
Nc1c(NC/C=C\COc2cc(CN3CCCCC3)ccn2)c(=O)c1=O	-3.61	6.95	-69.6	-24.2%	-13%
C[C@]1(c2nc3c(C(N)=O)cccc3[nH]2)CCCN1	-0.647	2.89	7.57	0.614% and -14.7%	17% and 2.34%
Cc1nc(C(C)C)sc1C(=O)N1C[C@@H](C)[C@](O)(C2CCC2)C1	-2.84	-4.3	-2.43	-6.46%	-2.63%
CCOc1ccccc1CN1C(=O)c2cc3ccccc3n2CC1(C)C(=O)NC1CCCCC1 (stereo not drawn)	-2.23	2.45	-2.52	4.28%	-1.42%
Cc1ccc(CNC(=O)CCCn2ccc3cc(S(=O)(=O)N4CCCC4)ccc32)o1	0.981	0.969	1.95	3.77%	4.23%
COc1ccccc1-n1cc(C(=O)N[C@H](c2cnn(C)c2)C2CC(O)C2)cn1 (stereo partly drawn)	-2.48	-5.43	-2.73	-2.99%	-7.68%
Cc1cc2c(cc3n2CC(C)(C(=O)NC2CCCCCCC2)N(Cc2ccc4c(c2)OCO4)C3=O)o1 (stereo not drawn)	-8.12	1.48	0.78	-11.5%	-2.83%
CCOc1ccc(C(=O)CSc2nnc3n(C)c(=O)c4ccc(C(=O)NC(C)CC)cc4n23)cc1 (stereo not drawn)	2.21	0	3.43	3.44%	3.85%
CCc1cccc(NC(=O)Cn2nc3nc(Nc4ccc(C)cc4)ccn3c2=O)c1	-0.401	0.277	3.18	2.91%	2.32%
CC(=O)N[C@@H](C(=O)O[C@H]1CCC(C)(C)[C@@H]2CCC3=C(COC3=O)[C@@]12C)C(C)C	-2.08	-3.66	4.52	-16%	-0.746%
CCCN1C(=O)c2c(C(=O)NCc3ccccc3OC)ncn2CC1(C)C(=O)NCCC(C)C (stereo not drawn)	1.39	1.09	3.97	3.09%	6.5%
CN(C)[C@@H]1C[C@@H](CO)N(C(=O)c2csc3nc(-c4ccccc4Cl)cn23)C1	-2.52	1.44	-17.3	-1.88%	-2.01%

SMILES	activity change, negative = inhibition [1] [%]	activity change, negative = inhibition [2] [%]	activity change, negative = inhibition [3] [%]	activity change, negative = inhibition [4]	activity change, negative = inhibition [5]
CCCC1c2cccn2CCN1C(=O)Nc1cc(Cl)ccc1C (stereo not drawn)	-3.48	0	-36.2	-2.08%	3.61%
COc1ccc(N2CC(COc3ccccc3)Oc3nc(C)ccc3C2=O)cc1 (stereo not drawn)	-8.25	0.774	0.743	-2.27%	-2.77%
COc1ccc(-c2cccc(C(=O)NC3CCOCC3)c2)nn1	-3.18	1.72	0.467	0.245%	-0.184%
COCCN1CCC(N2CCN(C(=O)c3ccsc3)CC2)C1=O (stereo not drawn)	-1.24	2.37	2.38	-1.45%	2.28%
O=C(CCCCc1ccc2ccccc2c1)C(F)(F)F	3.45	6.07	7.8	-8.1%	6.33%
O=C(c1ccc(F)cc1)N1CCCCCC1c1nnc(-c2ccccc2)o1 (stereo not drawn)	-6.16	-8.06	-6.5	-16.1%	-9.53%
COc1cccc(N2CCN(C(=O)Cn3ncc4c3-c3ccccc3OC4)CC2)c1	–	5.68	–	-10.6%	1.76%
CC(C)=CCc1cc2c(cc1O)OC[C@H]1c3ccc(O)cc3O[C@@H]21	-0.804	-19.4	-24.6	-31.4%	-12.2%
CCc1ccc(N2CC(c3noc(-c4sccc4C)n3)CC2=O)cc1 (stereo not drawn)	-3.36	1.73	2.18	-3.92%	-10.8%
NC(=O)[C@H](Cc1ccccc1)NC(=O)[C@H](CCCN=C(N)N)NC(=O)C12CC3CC(CC(C3)C1)C2	3.9	4.1	7.33	-5.58%	4.59%
CC(C)n1c(=O)c2ccc(C(=O)NC3CCCC3)cc2n2c(=O)n(CC(=O)Nc3ccccc3F)nc12	-1.08	0.832	8.54	-3.75%	0.176%
NC(=O)[C@H](Cc1ccc(O)cc1)NC(=O)[C@@]1(O)C[C@@H](O)[C@H](O)[C@@H](NC(=O)c2ccc(F)c(Cl)c2)C1	-6.61	-10.6	-4.09	-11.4%	-7.88%
CCOC(=O)c1cc2n(n1)CC(C)(C(=O)NCc1ccccc1)N(c1ccc(Cl)cc1)C2=O (stereo not drawn)	0.754	4.23	-0.994	-0.277%	1.21%
CCNC(=O)Nc1ccc2ncc(Nc3ccc(C)cc3)nc2n1	-0.69	-12.4	5.32	-21.4%	-10.3%
CC(C)n1c(=O)c2ccc(C(=O)NC3CCCC3)cc2n2c(=O)n(Cc3ccccc3)nc12	3.8	0	8.14	5.22%	5.98%
CCCN1C(=O)c2cc(C(=O)NCCN3CCOCC3)nn2CC1(C)C(=O)NC1CCCC1 (stereo not drawn)	3.79	0	2.49	0.692%	0.579%
CC1(C(=O)NCc2ccccc2)Cn2c(cc3ccccc32)C(=O)N1C1CCCCC1 (stereo not drawn)	1.9	3.49	9.05	1.92%	0.298%
CCN(CC)C(=O)[C@@H]1CCC[C@@H](NCc2cccc(OC)c2)CN(C)C(=O)C1	-0.952	-4.89	3.01	-0.469%	2.95%
Cc1ccc(-c2ncccn2)c(C(=O)N2C[C@H](COc3ccc(F)cn3)CC[C@H]2C)c1	-7.94	-9.8	6.56	-15.6%	-3.92%
CCNC(=O)[C@@H]1CCCN1C(C)(C)C(=O)NC	-3.45	-9.46	-3.55	-14.1%	8.31%

SMILES	activity change, negative = inhibition [1] [%]	activity change, negative = inhibition [2] [%]	activity change, negative = inhibition [3] [%]	activity change, negative = inhibition [4]	activity change, negative = inhibition [5]
NC1CC(c2cc(N3CCN(c4nnc(C(F)(F)F)s4)CC3)ncn2)C1 (stereo not drawn)	-3.92	4.66	-13.6	-7.13%	-4.37%
COc1ccc(N(C(=O)c2ccccc2C)S(=O)(=O)c2ccc3c(c2)n(C)c(=O)n3C)cc1	2.73	0.937	6.29	5.83%	4.2%
O=c1[nH]c2cc(C(F)(F)F)ccc2n1-c1cc(C(F)(F)F)ccc1O	-6.2	9.14	6.48	-12.6%	-3.46%
CCOC(=O)c1cc2n(n1)CC(C)(C(=O)NCc1ccccc1)N(c1ccc(C)cc1)C2=O (stereo not drawn)	3.71	0	10.2	8.82%	3.08%
Cc1onc(C(=O)NCCc2noc(-c3ccncc3)n2)c1Cn1cc(Cl)cn1	-4.91	-1.11	-0.706	-4.19%	11%
CCC(C)NC(=O)c1ccc2c(=O)n(CCC(C)C)c3nn(CC(=O)Nc4ccccc4)c(=O)n3c2c1 (stereo not drawn)	-1.77	1.37	-3.33	-4.23%	-4.2%
Cc1ccc(CCN2C(=O)Cn3cccc3C2C(=O)NC2CCCCC2C)cc1 (stereo not drawn)	-2.27	5.64	-0.515	2.96%	-5.1%
CCc1nccc(CN2CCCC(CC3CC3)(C(=O)O)C2)n1 (stereo not drawn)	-2.07	-5.04	-2.82	-14.5%	-3.01%
Cc1ccc(N2C(=O)c3cc(-c4ccco4)nn3CC2(C)C(=O)NC2CCCCC2)cc1C (stereo not drawn)	-11.4	-11.3	4.42	-5.16%	-2.77%
CC(C)n1cc(CN2CCC(CO)(Cc3ccccc3Cl)CC2)cn1	-3.29	-3.68	-36.8	-11.3%	-8.86%
N[C@@H](CCCC(=O)O)C(=O)O	3.61	9.15	8.1	-8.82%	-3.54%
Cc1cccc(N2CCN(C(=O)CCc3nnc4n(CCc5ccccc5)c(=O)c5ccccc5n34)CC2)c1C	-2.71	0	0.158	-10.5%	-4%
COCCN1CCCCCC(O)c2cc(C(=O)NCc3ccc(F)cc3)ccc21 (stereo not drawn)	-7.65	-1.83	-12	-2.47%	-4.82%
Cc1cc2c(cc1S(=O)(=O)N1CCN(c3ccccn3)CC1)n(C)c(=O)n2C	0.642	0	1.33	-6.07%	-0.108%
O=C(Cc1cccc(F)c1)NCc1nnc2cc(-c3nc(C4CC4)no3)ccn12	-3.01	-2.57	1.33	-11.3%	-0.106%
CCc1ccc(-c2cc3n(n2)CC(C)(C(=O)NC2CCCCC2)N(CCN(C)C)C3=O)cc1 (stereo not drawn)	1.89	2.87	4.77	1.56%	0.851%
CCCN(CCC)CCCN1C(=O)c2cc3oc(C)cc3n2CC1(C)C(=O)NC1CCCCCC1 (stereo not drawn)	0.223	0	-5.56	-2.64%	0.243%
O=c1c2ccccc2n2c(-c3cccc(F)c3)nnc2n1Cc1ccccc1	1.3	23.7	3.78	-0.355%	-3.31%
CN1C(=O)c2cc(C(=O)NCc3ccccn3)nn2CC1(C)C(=O)NC1CCCCCC1 (stereo not drawn)	3.23	0.392	11.5	11.4%	7.03%
CC1(C)CC[C@]2(C(=O)O[C@@H]3O[C@H](CO)[C@@H](O)[C@H](O)[C@H]3O)CC[C@]3(C)C(=CCC4[C@@]5(C)CC[C@H](O[C@@H]6O[C@H](C(=O)O)[C@@H](O)[C@H](O)[C@H]6O)[C@@](C)(CO)C5CC[C@]43C)C2C1 (stereo partly drawn)	5.72	2.71	5.81	-12.3%	-1.67%
